In PubChem BioAssay (NCATS):
The shares of active, inactive and inconclusive entries below differ from those in the screen. Potencies of inconclusive entries are left out as doubtful fits. Activity calls are given as the source filed them. The call rests on the fitted dose curve; in most records, active means well fitted cell-killing curve with a large enough effect; inconclusive means small, poorly fitted or top-dose-only effect; inactive means no such curve, though single readings can be large or run the other way.

Experiment: qHTS of pediatric cancer cell lines to identify multiple opportunities for drug repurposing: Primary screen for SJ-GBM2 cells (AID 1347091)
Details: SJ-GBM2 viability, CellTiter-Glo luminescence, 48 h; series mostly up to 46 µM
How it was run: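 Viability measured as metabolically active cells via CellTiter-Glo luminescence following 48 hours of compound exposure, 11-point dilutions in confirmatory testing. 500-1,000 cells/well plated 5 hours before dosing; controls were DMSO and 2.3 µM bortezomib.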
Potency means the concentration at half of the fitted maximal effect; tags describe the fitted curve by direction and shape.

## Nc1ccc(C(=O)Oc2ccccc2)c(O)c1
  Potency: inactive

## Cc1[nH]cnc1CN1CCc2c(c3ccccc3n2C)C1=O
  Potency: inactive

## CCC(CC)[C@H](NC(C)=O)[C@@H]1[C@H](O)[C@@H](C(=O)O)C[C@@H]1N=C(N)N
  Potency: inactive

## O=C(CCN1CCN(C(=O)OCc2cc(Cl)cc(Cl)c2)CC1)c1ccc2[nH]c(=O)oc2c1
  Potency: inactive

## COc1cccc2c1CCCC2CCCN1CCN(C2CCCCC2)CC1 (stereo not given)
  Potency: active: 18.7 µM

## CCN(CC)CCNC(=O)c1cc(Cl)c(N)cc1OC
  Potency: inactive

## C[C@H]1C[C@H]2[C@@H]3CCC4=CC(=O)C=C[C@]4(C)[C@@]3(Cl)[C@@H](O)C[C@]2(C)[C@@]1(O)C(=O)CO
  Potency: inconclusive [cytotoxic, single point]

## CCc1ccc(C=C2SC(=S)NC2=O)cc1
  Potency: inconclusive [cytotoxic, single point]

## CC(=O)OC(C)OC(=O)C(C)c1ccc(-c2ccccc2)c(F)c1 (stereo not given)
  Potency: inactive

## O=C(O)Cc1cccc(OCCCN(Cc2cccc(C(F)(F)F)c2Cl)CC(c2ccccc2)c2ccccc2)c1
  Potency: active: 23.5 µM

## O=NN(CCCl)C(=O)NCCCl
  Potency: inconclusive [cytotoxic, partial curve]

## O=C(CCN1CCN(CCO)CC1)N1c2ccccc2Sc2ccc(C(F)(F)F)cc21
  Potency: inactive

## CN1CCC(=C2c3ccccc3CCc3sccc32)CC1
  Potency: inconclusive [cytotoxic, partial curve]

## NCCO
  Potency: inactive

## CC(=O)Nc1ccc(O)cc1
  Potency: inconclusive [cytotoxic, partial curve, poor fit]
